Measurements as given in patent US11007503B2, “Systems and methods for a cooled nitric oxide generator” (The General Hospital Corporation, priority 2017, dated 2021).

Tested on: rabbits with acute pulmonary hypertension

[N]=O [NO, nitric oxide]
RVSP with NO generated on every two- or three-breaths (80 ppm NO triggered every other or every third breath, RVSP 30 mmHg before NO, P<0.05 versus before NO breathing, FIG. 15): 26 mmHg
RVSP reduction compared with 40 ppm NO diluted from NO/N2 tank (electrically generated NO versus tank NO (500 ppm NO in N2) in 50% O2, FIG. 14): as effective in reducing RVSP as breathing NO diluted from a convention NO/N2 cylinder
